# Data as given in PubChem BioAssay AID485294 (National Center for Advancing Translational Sciences (NCATS), 2010).
# Several values for one entry are separate records, joined by “and”; a condition that tells them apart may be missing. Identical values can stand only once. Hit rate of the full screen: of about 370,000 compounds, about 150 (0.041%) were called active. Inconclusive means that the source gave no clear call. Such entries were picked first, then a sample of the others. Calls follow the shape of the dose curve; as a rule, active = well fitted inhibition curve with a large enough effect; inconclusive = small, poorly fitted or top-dose-only effect; inactive = flat fitted curve, though single readings scatter. A potency beside an inconclusive call is a rough fit, not a confirmed value.
# Target: Beta-lactamase (Escherichia coli (strain K12)) (UniProt P00811)
# Chain of UniProt P00811 (P00811 whole entry, looked up): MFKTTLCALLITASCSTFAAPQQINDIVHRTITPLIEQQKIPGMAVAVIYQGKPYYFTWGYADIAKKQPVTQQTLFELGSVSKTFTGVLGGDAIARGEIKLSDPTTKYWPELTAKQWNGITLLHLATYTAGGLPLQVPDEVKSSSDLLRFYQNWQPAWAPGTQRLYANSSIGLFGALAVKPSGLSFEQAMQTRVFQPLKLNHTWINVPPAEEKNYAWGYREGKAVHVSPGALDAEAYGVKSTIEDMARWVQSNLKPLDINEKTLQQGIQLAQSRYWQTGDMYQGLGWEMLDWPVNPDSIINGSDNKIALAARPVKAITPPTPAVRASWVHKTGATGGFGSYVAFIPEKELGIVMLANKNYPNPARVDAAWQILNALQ
# Experiment: qHTS Inhibitors of AmpC Beta-Lactamase (assay with detergent); also: nearly all actives have a fitted effect of over 25% in size;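 as to activity change, negative = inhibition: 0% = no-compound wells and -100% = no-enzyme wells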
# Conditions: AmpC hydrolysis of nitrocefin, absorbance 480 nm, 0.01% Triton; activity change, negative = inhibition: at 114 µM (top of the series)
# In short: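 20 mM phosphate pH 7.0 + 0.01% (detergent screen) or 0.0001% Triton X-100; 5.3 nM AmpC reagent; cpd preinc 15 min RT; nitrocefin (800 uM stock) to start; A480 q20 s × 4 min; Activity was normalised to no-enzyme and no-compound control wells.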
# Potency is read from the fitted curve at half-maximal effect; tags tell the direction and shape of the fitted curve.
Compound,Potency,"activity change, negative = inhibition"
Cc1ccc2[nH]c(=O)c(-c3noc(C(C)C)n3)cc2c1,"inconclusive: 0.282 µM [inhibitor, full curve]",
CCN(CC)C(=O)COC(=O)c1cc(-c2ccc(OC)cc2)nc2ccccc12,,inactive: 5.89%
C=CCN1C(=O)C(O)(CC(=O)c2ccc(N)cc2)c2ccccc21 (stereo not drawn),"inconclusive: 0.562 µM [inhibitor, full curve, poor fit]",
CCN(CC)S(=O)(=O)c1ccc(N2CCCC2)c(NC(=O)CN2C(=O)NC3(CCCC3)C2=O)c1,"inconclusive: 89.1 µM [inhibitor, partial curve, poor fit]",
CCOc1ccc(CCNC(=O)c2ccc(C)c(-n3cnc4cccnc43)c2)cc1,,inactive: 18.4%
CNC(=O)Oc1ccc2c(c1)[C@]1(C)CCN(C)C1N2C (stereo partly drawn),"inconclusive: 10 µM [inhibitor, full curve]",
CCOc1c(C)cc(S(=O)(=O)NCc2ccccn2)c(C)c1C,"inconclusive: 25.1 µM [inhibitor, full curve, poor fit]",
O=C(NCC1CCN(Cc2cccc(Cl)c2)CC1)C1CCCN(c2ncnc3c2nc2n3CCCCC2)C1 (stereo not drawn),"inconclusive: 112 µM [inhibitor, partial curve, poor fit]",
Nc1nnc(SC2CC(=O)N(c3ccccc3)C2=O)s1 (stereo not drawn),"inconclusive: 56.2 µM [inhibitor, partial curve, poor fit]",
CC(=O)c1c(C)nc(-c2ccccc2)nc1NC(=O)C(C)C,"inconclusive: 0.631 µM [inhibitor, full curve, poor fit]",
CC(C)NC(=O)Cn1c(=O)nc(-c2ccccc2)c2ccccc21,,inactive: 0.395%
Cc1ccc(C(=O)O/N=C/c2c(N3CCOCC3)n(C)c3ccccc23)cc1,,inactive: -14.8%
c1ccc2oc(-c3csc(NCC4CCCO4)n3)cc2c1 (stereo not drawn),"inconclusive: 4.47 µM [inhibitor, full curve]",
CCN(CC)c1ccc(/C=N/NC(=O)OC)c(O)c1,,inactive: 0.0106%
O=C(CSc1nc2ccccc2o1)N/N=C/c1ccc(O)c(O)c1,,inactive: -10.2%
COc1ccc(CCNC(=O)Cc2cc(=O)[nH]c(=O)[nH]2)cc1OC,"inconclusive: 1.78 µM [inhibitor, full curve]",
CC(C)NC(=O)COC(=O)c1ccc(Cl)c(S(N)(=O)=O)c1,"inconclusive: 39.8 µM [inhibitor, partial curve]",
COc1ccc(C(=O)NCc2nnc(SCC(=O)Nc3ccc(C)cc3)n2-c2ccccc2)cc1,,inactive: 20.2%
CCOC(=O)c1ccc2nc(NC(=O)c3ccco3)sc2c1,"inconclusive: 1.78 µM [inhibitor, partial curve, poor fit]",
O=C(COc1ccccc1Cl)N1CCN(c2ccc([N+](=O)[O-])c(N3CCOCC3)c2)CC1,,inactive: -3.78%
N#Cc1cc(C(=O)c2cc(F)ccc2O)cn(-c2nccs2)c1=O,"inconclusive: 14.1 µM [inhibitor, full curve, poor fit]",
CC(=O)Nc1ccc(C(=O)Nc2ccc3c(c2)OCCO3)cc1,,inactive: -15.4%
Cc1ccc(S(=O)(=O)NC(C)C(=O)Nc2ccc(C(N)=O)cc2)cc1 (stereo not drawn),"inconclusive: 0.708 µM [inhibitor, full curve, poor fit]",

Compound,Potency,"activity change, negative = inhibition"
O=C(CCl)Nc1c[nH]c(=O)[nH]c1=O,"inconclusive: 0.708 µM [inhibitor, full curve, poor fit]",
Cc1ccc(C(C)C)c(OCC(=O)OCC(=O)NC2CCS(=O)(=O)C2)c1 (stereo not drawn),,inactive: -15.3%
Nc1nccnc1C(=O)OCC(=O)Nc1ccc2[nH]c(=O)[nH]c2c1,"inconclusive: 22.4 µM [inhibitor, full curve]",
CCN(CC)CCNc1nc2c(c(=O)[nH]c(=O)n2C)n1CCCc1ccccc1,,inactive: 5.67%
Cc1nn(C)cc1CNC(=O)c1cccc(Cl)c1,"inconclusive: 44.7 µM [inhibitor, single point]",
CCC(C)[C@H](NC(=O)NC1CCCc2ccccc21)C(=O)O (stereo partly drawn),,inactive: 0.457%
CC(=O)c1c(C)[nH]c(C(=O)Nc2ccccc2N2CCOCC2)c1C,"inconclusive: 7.94 µM [inhibitor, full curve, poor fit]",
Cc1cccc(NC(=O)CSc2nc3ccccc3nc2N2CC(C)OC(C)C2)c1 (stereo not drawn),,inactive: -2.18%
Oc1ccccc1CN1CCCC(N2CCc3ccccc3C2)C1 (stereo not drawn),"inconclusive: 0.631 µM [inhibitor, full curve, poor fit]",
COc1ccccc1N(C)S(=O)(=O)c1ccc(C(=O)Nc2ccncc2)cc1,"inconclusive: 0.141 µM [inhibitor, full curve, poor fit]",
CCn1c(C)c(C(C)=O)c(N2CCCCC2)nc1=S,"inconclusive: 8.91 µM [inhibitor, full curve]",
CCOc1ccc(Br)cc1S(=O)(=O)NC1CCCC1,,inactive: -19.4%
Cc1nc(SCC(=O)NCCc2ccccc2)n[nH]1,"inconclusive: 22.4 µM [inhibitor, full curve, poor fit]",
Cc1ccc(COn2c(-c3ccc(Cl)cc3)nc3ccc([N+](=O)[O-])cc32)cc1,"inconclusive: 0.794 µM [inhibitor, full curve]",
C=CCn1c(SCc2nc3c(c(=O)[nH]c(=O)n3CCCC)n2CCC)nnc1-c1ccccc1,"inconclusive: 44.7 µM [inhibitor, partial curve, poor fit]",
Cc1cccc(S(=O)(=O)c2c(N)n(-c3ccccc3)c3nc4ccccc4nc23)c1,,inactive: -12.7%
Cc1ccc(C2CC2c2n[nH]c(=S)n2-c2ccc(Cl)cc2)cc1 (stereo not drawn),"inconclusive: 5.01 µM [inhibitor, full curve, poor fit]",
COCCNC(=S)N/N=C1\CC(C)CC(C)(C)C1 (stereo not drawn),"inconclusive: 35.5 µM [inhibitor, full curve, poor fit]",
COc1ccc(OC)c(/C=N/NC(=S)NCCc2ccccc2)c1,,inactive: -7.22%
C=CCn1c(SCC(=O)N2c3ccccc3Sc3ccccc32)nnc1-c1ccco1,,inactive: -4.02%
CCCN(CCC)C(=O)C(CCC(=O)O)NC(=O)c1ccccc1 (stereo not drawn),"inconclusive: 7.94 µM [inhibitor, full curve, poor fit] and inconclusive: 56.2 µM [inhibitor, partial curve]",
COc1ccc(Br)cc1-c1nc(C)c(C(C)=O)n1O,"inconclusive: 0.631 µM [inhibitor, full curve, poor fit]",
CCOc1ccc(OCCC(=O)N(CC)CC(=O)Nc2ccccc2C(F)(F)F)cc1,"inconclusive: 0.631 µM [inhibitor, full curve, poor fit]",

Compound,Potency,"activity change, negative = inhibition"
CCOC(=O)c1cc(S(=O)(=O)NCc2ccco2)cn1C,"inconclusive: 44.7 µM [inhibitor, partial curve]",
CSCCC1NC2(C(=O)Nc3c(Cl)cccc32)[C@@H]2C(=O)N(C3CCCC3)C(=O)[C@H]12 (stereo partly drawn),"inconclusive: 0.708 µM [inhibitor, full curve, poor fit]",
O=C(Nc1ccc(N2CCN(C(=O)c3ccco3)CC2)cc1)c1ccccc1F,"inconclusive: 1.41 µM [inhibitor, full curve, poor fit]",
O=C(Cc1ccccc1)NC1CCN(C(=O)NCc2ccccc2)CC1,"inconclusive: 1.41 µM [inhibitor, full curve]",
CCn1cc(/C=C(\NC(=O)c2ccc(OC)cc2)C(=O)N2CCN(C)CC2)c2ccccc21,"inconclusive: 0.891 µM [inhibitor, partial curve]",
O=C(O)CNC(=O)/C=C/c1c(Cl)cccc1Cl,"inconclusive: 0.708 µM [inhibitor, full curve, poor fit]",
CCOc1cccc(-c2nc(C(N)=O)c3[nH]c(=O)n(-c4cccc(Cl)c4)c3n2)c1O,"inconclusive: 12.6 µM [inhibitor, partial curve, poor fit]",
C=C(c1ccc(O)cc1)c1ccc(O)cc1,,inactive: -3.4%
Cc1cc(F)ccc1S(=O)(=O)Nc1c(C)n(C)n(-c2ccccc2)c1=O,"inconclusive: 5.01 µM [inhibitor, partial curve, poor fit]",
COc1ccccc1-n1c(SCC(=O)OC(C)C)nc2cccnc21,"inconclusive: 28.2 µM [inhibitor, full curve]",
CC(C)N1CCN(C(=O)c2ccc(NC(=O)c3ccc(Br)o3)cc2)CC1,"inconclusive: 1.41 µM [inhibitor, full curve, poor fit]",
Cc1ccc(NC(=O)Nc2ccc([N+](=O)[O-])cc2)nc1,,inactive: 1.17%
O=C(Nc1c(O)c2ccccc2oc1=O)c1ccccc1Cl,,inactive: 10.9%
CCOC(=O)N1CCN(Cc2cc(Cl)c3cccnc3c2O)CC1,,inactive: -1.64%
CCOC(=O)C1=C(COC(=O)Cc2c(F)cccc2Cl)NC(=O)NC1C (stereo not drawn),,inactive: -5.04%
O=C(CSc1oc(-c2ccco2)nc1S(=O)(=O)c1ccccc1)NCC1CCCO1 (stereo not drawn),,inactive: -4.48%
O=C(CN1C(=O)c2ccccc2C1=O)Nc1sc2c(c1C(=O)NCc1ccco1)CCCC2,"inconclusive: 17.8 µM [inhibitor, full curve, poor fit]",
O=C(COc1cccc(Cl)c1)Nc1ccccc1N1CCCCC1,"inconclusive: 89.1 µM [inhibitor, partial curve, poor fit]",
N#Cc1cnn(Cc2ccccc2)c1/N=C/N1CCOCC1,"inconclusive: 50.1 µM [inhibitor, partial curve, poor fit]",
CCCOc1ccc(-c2c(=O)n(O)c3ccccc3[n+]2[O-])cc1,"inconclusive: 5.62 µM [inhibitor, full curve, poor fit]",
O=C(Nc1nnc(-c2ccc(F)cc2)o1)c1ccc(S(=O)(=O)N2CCOCC2)cc1,,inactive: -10.7%
O=C(Nc1cccc(-c2nc3ccccc3[nH]2)c1)c1cccc(NC(=O)c2ccco2)c1,"inconclusive: 39.8 µM [inhibitor, full curve]",
